# Assay results from the supplement of paper PMC6089552.
# ± gives the standard deviation of the averaged measurements. About 300 (9.4%) of roughly 3,200 compounds showed activity. This is a selection; strong and weak results do not stand in their true shares.
# Tested on: A673/TR/shEF
# Experiment: cell viability (LOESS-normalised, relative to median of negative controls) (log2 ratio); higher = more viable cells (less compound effect), active = hit call of the paper (over 3 MAD below the median)
# Conditions: treatment time: 72 h
# In short: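 A673/TR/shEF Ewing sarcoma cells (1,500 per well, 384-well plates) were grown with or without doxycycline to induce EWS-FLI1 shRNA knockdown, starting 24 h before compounds. Library compounds at two or more concentrations, with DMSO controls, were added for three days. Cell viability was read by CellTiter-Glo luminescence on an Envision reader, then LOESS-corrected per plate, divided by the median of negative controls and log2-transformed. Hits were wells at least three median absolute deviations from the median of all screened wells.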
# [1] = 0.25 µM, library screen: screen1, EWS-FLI1 expression: high (no doxycycline)
# [2] = 0.25 µM, library screen: screen1, EWS-FLI1 expression: low (doxycycline-induced shRNA knockdown)
# [3] = 2.5 µM, library screen: screen1, EWS-FLI1 expression: high (no doxycycline)
# [4] = 2.5 µM, library screen: screen1, EWS-FLI1 expression: low (doxycycline-induced shRNA knockdown)
# [5] = 0.25 µM, library screen: screen2, EWS-FLI1 expression: high (no doxycycline)
# [6] = 0.25 µM, library screen: screen2, EWS-FLI1 expression: low (doxycycline-induced shRNA knockdown)
# [7] = 2.5 µM, library screen: screen2, EWS-FLI1 expression: high (no doxycycline)
# [8] = 2.5 µM, library screen: screen2, EWS-FLI1 expression: low (doxycycline-induced shRNA knockdown)
# [9] = 0.103 µM, library screen: screen3, EWS-FLI1 expression: high (no doxycycline)
# [10] = 0.103 µM, library screen: screen3, EWS-FLI1 expression: low (doxycycline-induced shRNA knockdown)
# [11] = 0.308 µM, library screen: screen3, EWS-FLI1 expression: high (no doxycycline)
# [12] = 0.308 µM, library screen: screen3, EWS-FLI1 expression: low (doxycycline-induced shRNA knockdown)
# [13] = 0.926 µM, library screen: screen3, EWS-FLI1 expression: high (no doxycycline)
# [14] = 0.926 µM, library screen: screen3, EWS-FLI1 expression: low (doxycycline-induced shRNA knockdown)
# [15] = 2.8 µM, library screen: screen3, EWS-FLI1 expression: high (no doxycycline)
# [16] = 2.8 µM, library screen: screen3, EWS-FLI1 expression: low (doxycycline-induced shRNA knockdown)
# [17] = 8.3 µM, library screen: screen3, EWS-FLI1 expression: high (no doxycycline)
# [18] = 8.3 µM, library screen: screen3, EWS-FLI1 expression: low (doxycycline-induced shRNA knockdown)
# [19] = 25 µM, library screen: screen3, EWS-FLI1 expression: high (no doxycycline)
# [20] = 25 µM, library screen: screen3, EWS-FLI1 expression: low (doxycycline-induced shRNA knockdown)
smiles,measurement,setting,value
O=C1NS(=O)(=O)c2ccccc21,cell viability (log2),[1],inactive: 0.0666
same,cell viability (log2),[2],inactive: -0.0216
same,cell viability (log2),[3],inactive: 0.209
same,cell viability (log2),[4],inactive: 0.00514
S=C(S)N1CCCC1,cell viability (log2),[5],inactive: 0.191
same,cell viability (log2),[6],inactive: 0.0323
same,cell viability (log2),[7],inactive: 0.234
same,cell viability (log2),[8],inactive: 0.0843
c1coc(CNc2ncnc3nc[nH]c23)c1,cell viability (log2),[1],inactive: 0.0851
same,cell viability (log2),[2],inactive: 0.0555
same,cell viability (log2),[3],inactive: 0.116
same,cell viability (log2),[4],inactive: 0.0571
CC1=C(C(=O)Nc2ccccc2Cl)C(c2ccc(O)cc2)NC(=S)N1 (stereo not given),cell viability (log2),[1],inactive: 0.145
same,cell viability (log2),[2],inactive: -0.0151
same,cell viability (log2),[3],inactive: 0.191
same,cell viability (log2),[4],inactive: -0.0985
O=C(Nc1cccc(C(=O)Nc2ccc(S(=O)(=O)O)c3cc(S(=O)(=O)O)cc(S(=O)(=O)O)c23)c1)Nc1cccc(C(=O)Nc2ccc(S(=O)(=O)O)c3cc(S(=O)(=O)O)cc(S(=O)(=O)O)c23)c1,cell viability (log2),[5],inactive: 0.11
same,cell viability (log2),[6],inactive: 0.117
same,cell viability (log2),[7],inactive: 0.167
same,cell viability (log2),[8],inactive: 0.0855
Oc1ccc([C@H]2Oc3cc(O)cc(O)c3C[C@H]2O)cc1,cell viability (log2),[1],inactive: 0.0303
same,cell viability (log2),[2],inactive: -0.000667
same,cell viability (log2),[3],inactive: 0.0839
same,cell viability (log2),[4],inactive: -0.00856
O=C1CC(c2ccc(O)cc2)Oc2cc(O)cc(O)c21 (stereo not given),cell viability (log2),[1],inactive: 0.0907
same,cell viability (log2),[2],inactive: 0.00298
same,cell viability (log2),[3],inactive: 0.101
same,cell viability (log2),[4],inactive: 0.056
COc1cccc2c1C(=O)c1c(O)c3c(c(O)c1C2=O)C[C@@](O)(C(C)=O)C[C@@H]3O[C@H]1C[C@H](N)[C@H](O)[C@H](C)O1,cell viability (log2),[9],active: -0.695
same,cell viability (log2),[10],-0.133 ± 0.18
same,cell viability (log2),[5],active: -1.6
same,cell viability (log2),[6],active: -0.269
same,cell viability (log2),[11],active: -1.27
same,cell viability (log2),[12],active: -0.403
same,cell viability (log2),[13],active: -2.5
same,cell viability (log2),[14],active: -0.592
same,cell viability (log2),[7],active: -2.54
same,cell viability (log2),[8],active: -0.371
same,cell viability (log2),[15],active: -3.11
same,cell viability (log2),[16],active: -1.48
same,cell viability (log2),[17],active: -4.09
same,cell viability (log2),[18],active: -3.66
same,cell viability (log2),[19],active: -4.26
same,cell viability (log2),[20],active: -4.25
CNC(=O)c1cc(Oc2ccc(NC(=O)Nc3ccc(Cl)c(C(F)(F)F)c3)cc2)ccn1,cell viability (log2),[9],inactive: -0.00934
same,cell viability (log2),[10],inactive: 0.068
same,cell viability (log2),[11],inactive: 0.0857
same,cell viability (log2),[12],inactive: 0.0899
same,cell viability (log2),[13],inactive: 0.0368
same,cell viability (log2),[14],inactive: 0.101
same,cell viability (log2),[15],inactive: 0.131
same,cell viability (log2),[16],inactive: 0.0803
same,cell viability (log2),[17],inactive: -0.0131
same,cell viability (log2),[18],inactive: 0.145
same,cell viability (log2),[19],inactive: -0.12
same,cell viability (log2),[20],inactive: 0.128
OCc1ccccc1O[C@@H]1O[C@H](CO)[C@@H](O)[C@H](O)[C@H]1O,cell viability (log2),[1],inactive: 0.0427
same,cell viability (log2),[2],inactive: 0.0732
same,cell viability (log2),[3],inactive: 0.126
same,cell viability (log2),[4],inactive: 0.0536
Ic1ccc(N2CCN(Cc3c[nH]c4ncccc34)CC2)cc1,cell viability (log2),[5],inactive: 0.119
same,cell viability (log2),[6],inactive: 0.07
same,cell viability (log2),[7],inactive: 0.0811
same,cell viability (log2),[8],inactive: 0.158
C=CC1=C(C(=O)O)N2C(=O)[C@@H](NC(=O)/C(=N\O)c3csc(N)n3)[C@H]2SC1,cell viability (log2),[9],inactive: 0.114
same,cell viability (log2),[10],inactive: 0.0737
same,cell viability (log2),[11],inactive: 0.109
same,cell viability (log2),[12],inactive: 0.0907
same,cell viability (log2),[13],inactive: 0.0409
same,cell viability (log2),[14],inactive: 0.0692
same,cell viability (log2),[15],inactive: 0.0192
same,cell viability (log2),[16],inactive: 0.0781
same,cell viability (log2),[17],inactive: 0.0612
same,cell viability (log2),[18],inactive: 0.0513
same,cell viability (log2),[19],inactive: 0.0272
same,cell viability (log2),[20],inactive: 0.13
CC(C1OC(C)(C)C(O)C1O)[C@@H]1CC[C@]2(C)C3=CCC4C(C)(C)C(=O)CC[C@]4(C)C3CC[C@@]12C (stereo not given in full),cell viability (log2),[1],inactive: 0.062
same,cell viability (log2),[2],inactive: 0.126
same,cell viability (log2),[3],inactive: 0.148
same,cell viability (log2),[4],inactive: 0.137
CC(=O)NS(=O)(=O)c1ccc(N)cc1,cell viability (log2),[1],inactive: 0.0404
same,cell viability (log2),[2],inactive: 0.112
same,cell viability (log2),[3],inactive: 0.118
same,cell viability (log2),[4],inactive: 0.0492
CCc1cccc(N(C)C(N)=Nc2cccc3ccccc23)c1,cell viability (log2),[5],inactive: 0.138
same,cell viability (log2),[6],inactive: 0.102
same,cell viability (log2),[7],inactive: 0.0361
same,cell viability (log2),[8],inactive: 0.156
Cc1cn([C@H]2C=C[C@@H](CO)O2)c(=O)[nH]c1=O,cell viability (log2),[9],inactive: -0.00295
same,cell viability (log2),[10],inactive: 0.0515
same,cell viability (log2),[5],inactive: 0.197
same,cell viability (log2),[6],inactive: 0.032
same,cell viability (log2),[11],inactive: -0.0178
same,cell viability (log2),[12],inactive: 0.0223
same,cell viability (log2),[13],inactive: 0.0714
same,cell viability (log2),[14],inactive: 0.0163
same,cell viability (log2),[7],inactive: 0.101
same,cell viability (log2),[8],inactive: 0.0899
same,cell viability (log2),[15],inactive: 0.0507
same,cell viability (log2),[16],inactive: 0.0197
same,cell viability (log2),[17],inactive: 0.102
same,cell viability (log2),[18],inactive: 0.0821
same,cell viability (log2),[19],inactive: 0.0208
same,cell viability (log2),[20],inactive: 0.0668
C=C1CC[C@@H]2[C@](C)(CO)[C@H](O)CC[C@@]2(C)[C@@H]1C/C=C1/C(=O)OC[C@H]1O,cell viability (log2),[1],inactive: 0.0718
same,cell viability (log2),[2],inactive: 0.0195
same,cell viability (log2),[3],inactive: 0.114
same,cell viability (log2),[4],inactive: 0.0291
CC(C)c1ccc2c(c1)CCC1C(C)(CN)CCCC21C (stereo not given),cell viability (log2),[1],inactive: 0.0133
same,cell viability (log2),[2],inactive: -0.0819
same,cell viability (log2),[3],inactive: 0.122
same,cell viability (log2),[4],inactive: 0.00337
N[C@@H](Cc1c[nH]c2ccccc12)C(=O)O,cell viability (log2),[1],inactive: 0.0944
same,cell viability (log2),[2],inactive: 0.145
same,cell viability (log2),[5],inactive: 0.119
same,cell viability (log2),[6],inactive: 0.0955
same,cell viability (log2),[3],inactive: 0.157
same,cell viability (log2),[4],inactive: 0.234
same,cell viability (log2),[7],inactive: 0.198
same,cell viability (log2),[8],inactive: -0.0227
